The least precise scores are not listed. Two further conditions of the source, in which the scores hardly spread, are not listed. Names with del lack the residues named; names with ins carry added residues between the positions named. For some of these results: The concentration of ogerin is not given here.
B1: GPR68, Q15743 (parent)
chain: MGNITADNSSMSCTIDHTIHQTLAPVVYVTVLVVGFPANCLSLYFGYLQIKARNELGVYLCNLTVADLFYICSLPFWLQYVLQHDNWSHGDLSCQVCGILLYENIYISVGFLCCISVDRYLAVAHPFRFHQFRTLKAAVGVSVVIWAKELLTSIYFLMHEEVIEDENQHRVCFEHYPIQAWQRAINYYRFLVGFLFPICLLLASYQGILRAVRRSHGTQKSRKDQIQRLVLSTVVIFLACFLPYHVLLLVRSVWEASCDFAKGVFNAYHFSLLLTSFNCVADPVLYCFVSETTHRDLARLRGACLAFLTCSRTGRAREAYPLGAPEASGKSGAQGEEPELLTKLHPAFQTPNSPGSGGFPTGRLA

Experiments:
[1] = variants of: B1; test: cAMP reporter score (Enrich2 score, wild type = 0); higher = more signal; HEK293T, FACS bins
[2] = variants of: B1; test: surface expression score (Enrich2 score, wild type = 0); higher = more signal; HEK293T, FACS bins

Variant | cAMP reporter score ([1]; pH 5.5) | cAMP reporter score ([1]; pH 6) | cAMP reporter score ([1]; pH 6, modulator: ogerin) | cAMP reporter score ([1]; pH 6.5, modulator: ogerin) | surface expression score [2]
MGNITADNSSMSCTIDHTIHQTLAPVVYVTVLVVGFPANCLSLYFGYLQIKARNELGVYLCNLTVADLFYICSLPFWLQYVLQHDNWSHGDLSCQVCGILLYENIYISVGFLCCISVDRYLAVAHPFRFHQFRTLKAAVGVSVVIWAKELLTSIYFLMHEESIEDENQHRVCFEHYPIQAWQRAINYYRFLVGFLFPICLLLASYQGILRAVRRSHGTQKSRKDQIQRLVLSTVVIFLACFLPYHVLLLVRSVWEASCDFAKGVFNAYHFSLLLTSFNCVADPVLYCFVSETTHRDLARLRGACLAFLTCSRTGRAREAYPLGAPEASGKSGAQGEEPELLTKLHPAFQTPNSPGSGGFPTGRLA [V162S] | -1.4 | -0.798 | -1.46 | -1.02 | 0.367
MGNITADNSSMSCTIDHTIHQTLAPVVYVTVLVVGFPANCLSLYFGYLQIKARNELGVYLCNLTVADLFYICSLPFWLQYVLQHDNWSHGDLSCQVCGILLYENIYISVGFLCCISVDRYLAVAHPFRFHQFRTLKAAVGVSVVIWAKELLTSIYFLMHEERIEDENQHRVCFEHYPIQAWQRAINYYRFLVGFLFPICLLLASYQGILRAVRRSHGTQKSRKDQIQRLVLSTVVIFLACFLPYHVLLLVRSVWEASCDFAKGVFNAYHFSLLLTSFNCVADPVLYCFVSETTHRDLARLRGACLAFLTCSRTGRAREAYPLGAPEASGKSGAQGEEPELLTKLHPAFQTPNSPGSGGFPTGRLA [V162R] | -1.45 | -0.315 | -1.19 | -0.837 | 1.41

From the GPR68 mutational scans of Howard et al. (2025)
